The supplement of paper PMC9446081
About 220 (0.56%) of roughly 39,000 compounds showed activity. The list shows a part of the results.

test system: Escherichia coli K-12 BW25113; experiment: relative growth (OD600 normalised to plate interquartile mean) (fraction); higher = less growth inhibition, active = 0.2 or less; settings: 50 µM; LB; incubation time: overnight (16-24 h)
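Further: static incubation at 37 °C against the wild-type strain, values averaged over two biological replicates.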

Row | SMILES | relative growth
1 | Cc1ccc(S(=O)(=O)Nc2cccc3c2O[C@H](CN(C)Cc2ccc(-c4ccccc4)cc2)[C@@H](C)CN([C@@H](C)CO)C3=O)cc1 | inactive: 1.03
2 | O=C(Nc1ccc(C(=O)Nc2ccc(C(=O)Nc3ccc(S(=O)(=O)O)c4cc(S(=O)(=O)O)cc(S(=O)(=O)O)c34)cc2)cc1)Nc1ccc(C(=O)Nc2ccc(C(=O)Nc3ccc(S(=O)(=O)O)c4cc(S(=O)(=O)O)cc(S(=O)(=O)O)c34)cc2)cc1 | inactive: 0.904
3 | O=C(NCC[C@H]1CC[C@H](NS(=O)(=O)c2cccc(F)c2)[C@@H](CO)O1)C1CC1 | inactive: 0.965
4 | O=C(C[C@H]1CC[C@@H](NC(=O)CN2CCOCC2)[C@@H](CO)O1)NCCc1ccncc1 | inactive: 1
5 | C[C@@H]1CN([C@@H](C)CO)C(=O)c2cc(C#CC3(O)CCCC3)cnc2O[C@@H]1CN(C)S(=O)(=O)c1ccc(F)cc1 | inactive: 0.999
6 | COc1ccc(S(=O)(=O)Nc2ccc3c(c2)C(=O)N([C@H](C)CO)C[C@H](C)[C@@H](CN(C)C(=O)NC2CCCCC2)OCCCC[C@H](C)O3)cc1 | inactive: 1.02
7 | C[C@@H]1CN([C@@H](C)CO)C(=O)c2cc(NS(=O)(=O)c3cn(C)cn3)ccc2O[C@@H]1CN(C)CC1CCCCC1 | inactive: 0.986
8 | COCC(=O)N1CC[C@]2(CC(C(=O)NCc3cnc(C)cn3)=NO2)C1 | inactive: 1
9 | COc1ccccc1-c1ccc2c(c1)O[C@H](CN(C)C(=O)c1ccncc1)[C@@H](C)CN([C@@H](C)CO)S2(=O)=O | inactive: 1.02
10 | CCOC(=O)c1cc2c(c(-c3cccc(Br)c3)n1)[C@@H](CCOC)N([S@](=O)C(C)(C)C)C2 | inactive: 0.998
11 | C[C@@H]1CN([C@H](C)CO)C(=O)Cc2cc(NC(=O)Nc3ccc(C(F)(F)F)cc3)ccc2O[C@@H]1CN(C)CC1CCCCC1 | inactive: 1.01
12 | COc1ccc(CN(C)C[C@H]2OCCCC[C@@H](C)Oc3ccc(NC(=O)Nc4ccc5c(c4)OCO5)cc3C(=O)N([C@H](C)CO)C[C@H]2C)cc1 | inactive: 0.999
13 | C[C@H](CO)N1C[C@H](C)[C@@H](CN(C)S(=O)(=O)c2ccccc2)Oc2c(NC(=O)Nc3cccc4ccccc34)cccc2C1=O | inactive: 0.934
14 | C[C@H]1CN([C@@H](C)CO)C(=O)Cc2cc(NC(=O)CCCN(C)C)ccc2O[C@@H]1CN(C)S(=O)(=O)c1cn(C)cn1 | inactive: 0.983
15 | Cc1noc(C)c1S(=O)(=O)Nc1ccc2c(c1)C(=O)N([C@@H](C)CO)C[C@@H](C)[C@H](CN(C)S(=O)(=O)c1cn(C)cn1)OCCCC[C@@H](C)O2 | inactive: 0.981
